PubChem BioAssay AID1347165 (National Center for Advancing Translational Sciences (NCATS), 2019)
Where “and” joins values, the source holds several entries; their conditions need not be identical. Identical values can stand only once. The whole screen tested about 220,000 compounds, of which about 5,700 (2.6%) were called active. The shares of active, inactive and inconclusive entries below differ from those in the screen. Calls follow the shape of the dose curve; as a rule, active = well fitted inhibition curve with a large enough effect; inconclusive = small, poorly fitted or top-dose-only effect; inactive = no such curve, though single readings can be large or run the other way. Potencies beside an inconclusive call are fits to weak or partial responses and may not hold up. The source holds several records for some structures; these can differ, active in one and inactive in another.

molecular target: Lysine-specific demethylase 5B (Homo sapiens) (UniProt Q9UGL1); test: Primary screen for KDM5B Histone Demethylases FDH-coupled qHTS; details: FDH-coupled NADH fluorescence (FDH is formaldehyde dehydrogenase); activity change, negative = inhibition: at 57.7 µM (top of the series) unless noted; also: nearly all actives have a fitted effect of over 70% in size; as to activity change, negative = inhibition: 0% is about no effect
UniProt Q9UGL1, sequence (Q9UGL1 whole entry, looked up): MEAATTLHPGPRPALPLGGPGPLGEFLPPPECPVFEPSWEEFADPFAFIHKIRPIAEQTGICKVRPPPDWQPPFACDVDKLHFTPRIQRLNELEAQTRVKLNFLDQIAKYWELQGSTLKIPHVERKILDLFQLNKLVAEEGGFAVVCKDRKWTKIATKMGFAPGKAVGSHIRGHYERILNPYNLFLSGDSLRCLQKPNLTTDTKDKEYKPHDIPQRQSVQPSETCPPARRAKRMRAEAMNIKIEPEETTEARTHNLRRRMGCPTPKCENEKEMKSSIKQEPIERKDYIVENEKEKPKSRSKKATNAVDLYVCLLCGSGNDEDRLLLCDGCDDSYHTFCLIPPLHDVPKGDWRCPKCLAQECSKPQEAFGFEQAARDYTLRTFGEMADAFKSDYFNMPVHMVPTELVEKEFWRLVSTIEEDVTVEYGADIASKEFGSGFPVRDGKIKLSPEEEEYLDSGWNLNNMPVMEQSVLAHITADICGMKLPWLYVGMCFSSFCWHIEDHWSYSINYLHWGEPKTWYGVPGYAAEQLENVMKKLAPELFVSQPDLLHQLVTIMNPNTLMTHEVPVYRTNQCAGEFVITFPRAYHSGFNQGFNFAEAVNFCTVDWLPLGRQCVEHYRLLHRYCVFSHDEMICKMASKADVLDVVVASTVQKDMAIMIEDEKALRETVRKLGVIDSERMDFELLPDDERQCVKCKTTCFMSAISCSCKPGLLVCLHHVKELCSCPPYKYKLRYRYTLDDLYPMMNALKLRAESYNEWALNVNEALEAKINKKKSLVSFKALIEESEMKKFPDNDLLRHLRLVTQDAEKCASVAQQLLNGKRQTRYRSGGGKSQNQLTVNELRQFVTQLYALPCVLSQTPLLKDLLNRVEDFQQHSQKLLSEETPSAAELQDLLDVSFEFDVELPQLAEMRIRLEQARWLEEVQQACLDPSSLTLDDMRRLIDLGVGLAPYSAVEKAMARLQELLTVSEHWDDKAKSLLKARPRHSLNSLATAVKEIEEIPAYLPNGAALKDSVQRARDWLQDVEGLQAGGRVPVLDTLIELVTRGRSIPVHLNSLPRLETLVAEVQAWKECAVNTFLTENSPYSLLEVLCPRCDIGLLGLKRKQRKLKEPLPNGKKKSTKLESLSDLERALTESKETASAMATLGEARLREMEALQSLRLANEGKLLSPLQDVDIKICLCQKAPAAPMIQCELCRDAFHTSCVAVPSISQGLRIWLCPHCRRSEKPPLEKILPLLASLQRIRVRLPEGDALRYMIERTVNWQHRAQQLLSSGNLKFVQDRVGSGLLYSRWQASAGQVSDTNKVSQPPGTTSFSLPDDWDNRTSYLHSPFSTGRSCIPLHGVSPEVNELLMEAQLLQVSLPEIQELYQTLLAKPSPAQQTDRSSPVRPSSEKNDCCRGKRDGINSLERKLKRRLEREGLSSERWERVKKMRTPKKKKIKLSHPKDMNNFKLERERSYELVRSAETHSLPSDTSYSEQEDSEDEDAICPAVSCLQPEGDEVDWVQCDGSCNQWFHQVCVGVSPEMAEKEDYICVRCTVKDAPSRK
In short: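 qHTS format, multiple compound concentrations. Buffer 50 mM HEPES pH 7.5/0.01% Tween-20; 200 nM KDM5BΔAP final; 10 min compound preincubation; substrate-mix levels 12.5 µM peptide, 25 µM α-KG, 0.25 mM NAD⁺; 30 min RT; ΔRFU.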
Potency is read from the fitted curve at half-maximal effect; tags tell the direction and shape of the fitted curve.

SMILES	Potency	activity change, negative = inhibition
CCN(CC)S(=O)(=O)c1ccc(N(C)C)c(NS(=O)(=O)c2cc(C)ccc2C)c1	inconclusive: 22.4 µM [inhibitor, partial curve, poor fit]	
Cc1ccc(C(C)NC(=O)C2CCCO2)cc1 (stereo not drawn)		inactive: -2.84%
Cc1cc2c(cc3c(SCc4ccc(Cl)cc4)nncn32)o1	inconclusive: 28.2 µM [inhibitor, partial curve, poor fit]	
CCCNC(=O)c1c(-n2cnnn2)sc2c1CCC2	inconclusive: 35.5 µM [inhibitor, single point]	
COc1ccc(CN2CC[C@@H](CO)N(C)c3nc(C)ccc3C2)cc1	inconclusive: 28.2 µM [inhibitor, single point]	
COc1ccccc1C(CC(=O)NCCc1ccccc1)c1c[nH]c2ccccc12 (stereo not drawn)	inconclusive: 22.4 µM [inhibitor, single point]	
O=C(NCCCN1CCCC1=O)c1c(OCC2CC2)cc(=O)n2c1CCCCC2		inactive: 20.9%
Cc1ccc(NC(=O)Nc2c[nH]c(=O)[nH]c2=O)c(Cl)c1	inconclusive: 39.8 µM [inhibitor, single point]	
COc1ccccc1SC(C)C(=O)NC(C)(C)C (stereo not drawn)		inactive: 16.3%
Cc1sc2ncn(CC(=O)NC3CCCc4ccccc43)c(=O)c2c1-c1ccccc1 (stereo not drawn)		inactive: -13.3%
O=C(NCC(c1cccs1)N1CCCCC1)c1cc2ccccc2oc1=O (stereo not drawn)	inconclusive: 35.5 µM [inhibitor, partial curve, poor fit]	
CCOc1ccccc1C1NC(=O)N(CC(=O)Nc2cccc(Cl)c2)C2=C1C(=O)OC2 (stereo not drawn)	inconclusive: 35.5 µM [inhibitor, partial curve, poor fit]	
COc1cc(C2Nc3cc(C)c(C)cc3NC3=C2C(=O)CC(C)(C)C3)ccc1O (stereo not drawn)	inconclusive: 10 µM [inhibitor, partial curve, poor fit]	
CCOc1cc(C(=O)Nc2ccc(NC(=O)c3cc4ccccc4o3)c(OC)c2)cc(OCC)c1OCC		inconclusive: -39.3% [inhibitor]
CC(C)NC(=O)Cc1ccc(-n2c(=O)c3ccccc3n(Cc3cccc(Cl)c3)c2=O)cc1		inactive: -6.86%
CCc1noc(-c2cccn3c(CNC(=O)C(C)c4ccccc4)nnc23)n1 (stereo not drawn)	active: 22.4 µM	
CCn1ccc2cc(S(=O)(=O)N3CCC(C(=O)NCC4CCCO4)CC3)ccc21 (stereo not drawn)		inactive: 24.8%
COCCN1CC2(CCC1=O)CCN(c1nc(C(C)C)ccc1C#N)CC2	active: 28.2 µM	
COc1ccccc1C(=O)NC1CCN(c2nnc3ccccn23)CC1	active: 28.2 µM	
Cc1cc(NC(=O)CCc2nc3cccnc3n2Cc2cccs2)ccc1Br	inconclusive: 35.5 µM [inhibitor, single point]	
COCCNC(=O)c1ccc2c(c1)N(C)C(CC(=O)NCc1ccoc1)CO2 (stereo not drawn)	active: 28.2 µM	
C[C@H]1CCCN1C(=O)c1nnc(COc2ccc(Cl)cc2)n1-c1ccccc1		inactive: 18.1% [at 86.2 µM]
O=C(O)Cn1ccc2cc(OCCc3cccc(-c4ccc(Cl)cc4)c3)cnc21	active: 35.5 µM	

SMILES	Potency	activity change, negative = inhibition
c1ccc(-c2nc3ncccc3[nH]2)cc1	active: 31.6 µM	
CN(C)c1ccc(CNC(=O)CN2C(=O)CSc3ccc(S(=O)(=O)N4CCCC4)cc32)cc1	inconclusive: 1.78 µM [inhibitor, partial curve, poor fit]	
Cc1noc2nc3c(c(C(=O)N[C@H]4CC[C@H]4NC4CCCC4)c12)CCC3	inconclusive: 14.1 µM [inhibitor, partial curve]	
O=C(Cc1ccccc1Cl)N1CCC(c2nc3c(nnn3Cc3ccccc3)c(=O)[nH]2)CC1		inactive: -5.02%
CN(CCc1ccncc1)C(=O)CCc1ccnc(N2CCCC2)c1	inconclusive: 20 µM [inhibitor, single point]	
O=C(NCCc1ccccn1)c1ccc2c(c1)CCCC2		inactive: 10.3%
CCOc1ccccc1CNC(=O)c1cc2c(N3CCCC3)nc(C)cn2n1	inconclusive: 25.1 µM [inhibitor, partial curve, poor fit]	
CCOc1ccccc1NS(=O)(=O)c1cc(-c2c(C)nn3c2NC(=O)CCC3=O)ccc1OC		inactive: -10.9%
CCN(CC)CCn1c(C)c(C)c2c1ncn1nc(CSc3nc4ccccc4o3)nc21		inactive: -4.84%
Cc1ccccc1N1Cc2c(NCc3cccs3)ncnc2N(C)CC1=O	inconclusive: 35.5 µM [inhibitor, partial curve, poor fit]	
O=C(CN1CCCc2nc(C3CC3)ncc2C1=O)NCCc1c[nH]c2ccccc12	inconclusive: 25.1 µM [inhibitor, partial curve, poor fit]	
CN(C)C(=O)C(Sc1nnc(-c2cc(Cl)ccc2Cl)n1N)c1ccccc1 (stereo not drawn)		inactive: 20.6%
CC(=O)c1ccc(N2CC[C@@H](NC(=O)c3cnccn3)[C@H](O)C2)nc1	inconclusive: 20 µM [inhibitor, partial curve]	
COc1ccc(-c2nc3cc(NC(C)=O)ccc3o2)cc1OC	inconclusive: 25.1 µM [inhibitor, partial curve, poor fit]	
CCOC(=O)N1CCN(C(=O)CN(c2cccc(F)c2)S(C)(=O)=O)CC1		inactive: -5.14%
O=C(c1nc(-c2ccccc2)c2ccccn12)N1CCCC1	active: 39.8 µM	
O=c1[nH]c(C2CCCN(Cc3ccc(-c4ccsc4)cc3)C2)nc2ccc(F)cc12 (stereo not drawn)	active: 79.4 µM and inconclusive: 25.1 µM [inhibitor, single point]	
Cc1noc(-c2ccn3c(CNC(=O)c4cccc(N(C)C)c4)nnc3c2)n1	inconclusive: 35.5 µM [inhibitor, partial curve, poor fit]	
Cn1ccnc1-c1ccc(N2CC[C@](C)(O)[C@@H](O)C2)nn1	inconclusive: 35.5 µM [inhibitor, partial curve, poor fit]	
CN(C)C(=O)c1cc(-c2ccc(Cl)cc2Cl)nc2c1cnn2C	inconclusive: 56.2 µM [inhibitor, partial curve, poor fit]	
Cc1ccc(C(=O)Nc2ccc3c(N4CCCCC4)ncnc3c2)cc1F	inconclusive: 39.8 µM [inhibitor, single point]	
Cc1nc(-c2ccccc2)sc1C(=O)N[C@H](C(=O)O)C(C)C		inactive: -15.1%
CC(Sc1nnnn1C(C)(C)C)C(=O)c1cccc(Cl)c1 (stereo not drawn)		inactive: 11.6%

SMILES	Potency	activity change, negative = inhibition
CCNC(=O)C1C(c2cccc(NC(=O)c3ccc(C)cc3)c2)OC(=O)N1Cc1ccc(F)cc1 (stereo not drawn)		inactive: 2.91%
COC(=O)[C@@H]1Cc2c([nH]c3ccccc23)[C@H]2C[C@@H](NCCN3CCOCC3)C[C@@H](c3ccc(OC(F)(F)F)cc3)N21		inactive: -26.8%
Cc1ccc(-c2nc(CS(=O)(=O)CC(=O)NCc3ccccc3C)c(C)o2)cc1	inconclusive: 35.5 µM [inhibitor, single point]	
c1ccc([C@@H]2CN(Cc3ccncc3)C[C@H]2COc2cccnc2)nc1	inconclusive: 15.8 µM [inhibitor, partial curve, poor fit]	
CCOc1ccc(CC(=O)NC2CCN(c3cc(-c4cccs4)[nH]n3)C2)cc1 (stereo not drawn)	inconclusive: 14.1 µM [inhibitor, partial curve, poor fit]	
CNc1ccc(-c2noc([C@@H]3CCCN3Cc3ccc(CO)o3)n2)cn1	inconclusive: 39.8 µM [inhibitor, partial curve, poor fit]	
Cc1ccc(CNC(=O)c2cc3cn(C(C)C)cc3s2)cc1	inconclusive: 14.1 µM [inhibitor, partial curve]	
COc1ccccc1-c1ccnc(N[C@H]2CO[C@H]3[C@@H]2OC[C@@H]3NS(=O)(=O)c2cccs2)n1	inconclusive: 28.2 µM [inhibitor, single point]	
CC(C)[C@H](NC(=O)OCc1ccccc1)C(=O)OCC(=O)NC1(C#N)CCCC1		inactive: 0.12%
Cc1cccc(N2CCN(C(=O)c3oc(=O)c4ccccc4c3-c3ccccc3)CC2C)c1 (stereo not drawn)	inconclusive: 31.6 µM [inhibitor, single point]	
Cc1ccc(CN2CCCN(c3cccc(C(=O)N4CCCCCC4)c3)C2=O)cc1		inactive: 5.58%
Cc1cc(OCC(=O)NC(Cc2c[nH]c3ccccc23)C(=O)O)ccc1Cl (stereo not drawn)	inconclusive: 35.5 µM [inhibitor, single point]	
Cc1oc2ncn(C)c(=O)c2c1C(=O)Nc1ccc(F)cc1		inactive: 7.98%
C=CC(=O)NC(=O)NCc1ccccc1		inactive: 27.2%
COc1cccc(/C=N/Nc2nnc(C)n2N)c1O	inconclusive: 12.6 µM [inhibitor, partial curve, poor fit]	
N=C1/C(=C\c2ccc(-c3cccc(C(=O)O)c3)o2)C(=O)N=C2SC=C(c3ccccc3)N12	inconclusive: 17.8 µM [inhibitor, partial curve, poor fit]	
COCCNC(=O)CS(=O)(=O)Cc1nc(-c2ccccc2C)oc1C		inactive: 8.9%
CCN1C(=O)C2CC3(CCN(C(=O)c4cc5ccc(OC)cc5[nH]4)CC3)CN2C1=O (stereo not drawn)	inconclusive: 22.4 µM [inhibitor, partial curve, poor fit]	
Cc1cccc(NC(=O)c2cc(-c3cccs3)nc3ccccc23)n1	inconclusive: 28.2 µM [inhibitor, partial curve, poor fit]	
NC(=O)c1cc(S(=O)(=O)NCC2CCC(C(=O)Nc3ccc(Cl)cc3)CC2)cs1 (stereo not drawn)		inactive: -23.7%
O=C(Cc1cccs1)N/N=C/c1cccc2ccccc12	inconclusive: 1.78 µM [inhibitor, partial curve, poor fit]	
C[C@H](C(=O)N1CCOCC1)C1CC[C@@]2(C)Cc3sc(CS(=O)(=O)C(C)(C)C)nc3[C@@H](C)[C@@H]2[C@H]1O (stereo partly drawn)		inactive: -0.877%
